# From the supplement of paper PMC10670038
# Structures can show the parent of a compound that is named as a salt. ± gives the standard deviation of the averaged measurements. In all, about 2,000 compounds were measured (“relative cell viability vs DMSO, compound + 0.2 uM CuET”: median about 1, lowest 2% from about 0.25 on). The list shows a part of the results.
# System: TE10
# Assay: relative cell viability vs DMSO, compound + 0.2 uM CuET (fraction); TE10 is an esophageal squamous carcinoma line; higher = less cytotoxic
# Conditions: 2 µM; co-treatment: CuET (bis(diethyldithiocarbamate)copper) 0.2 uM; 48 h
# Protocol: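 TE10 ESCC cells (1,000/well, 384-well plates) were treated with Selleck bioactive library compounds at 2 uM combined with 0.2 uM CuET (copper diethyldithiocarbamate) for 48 h. Viability was read by CellTiter-Glo and expressed relative to DMSO wells. Two technical replicates (A, B).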
row,SMILES,relative cell viability
1,Cc1cc(N2CCOCC2)cc2[nH]c(-c3c(NCC(O)c4cccc(Cl)c4)cc[nH]c3=O)nc12 (stereo not given),0.799 ± 0.15
2,Clc1ccc(COC(Cn2ccnc2)c2ccc(Cl)cc2Cl)cc1 (stereo not given) [Econazole nitrate],0.78 ± 0.05
3,Clc1ccccc1C(c1ccccc1)(c1ccccc1)n1ccnc1 [Clotrimazole],0.816 ± 0.048
4,NC(=O)NO [Hydroxyurea],1.139 ± 0.003
5,CCN(CCCc1ccccc1)CCCc1ccccc1 [Alverine Citrate],1.25 ± 0.14
6,COc1cc2c(cc1OC)CN(CCc1ccc(NC(=O)c3cccc4c(=O)c5cccc(OC)c5[nH]c34)cc1)CC2,0.999 ± 0.17
7,O=C(O)c1ccc(N2C(=O)C(=Cc3ccc(-c4ccc([N+](=O)[O-])cc4)o3)C=C2c2ccccc2)cc1,1.1 ± 0.22
8,CCc1cc(/C(C)=N/OCc2ccc(C3CCCCC3)c(C(F)(F)F)c2)ccc1CN1CC(C(=O)O)C1 [BAF312 (Siponimod)],1.07 ± 0.027
9,Cc1cc(CS(=O)(=O)c2ccccc2)cc(OCc2ccc(CN3CCC[C@@H]3CO)cc2)c1,1.04 ± 0.04
10,O=C(Nc1ccc2c(O)cc(S(=O)(=O)O)cc2c1)Nc1ccc2c(O)cc(S(=O)(=O)O)cc2c1,1.04 ± 0.058
11,CC(C)(Oc1ccc(C2CC2(Cl)Cl)cc1)C(=O)O (stereo not given) [Ciprofibrate],1.07 ± 0.043
12,Nc1nc(Nc2ccc(S(N)(=O)=O)cc2)nn1C(=O)c1c(F)cccc1F,0.765 ± 0.074
13,NC(=O)CCCSc1nc(N)nc(-c2c(Cl)cc3c4c(cccc24)COC3)n1,0.687 ± 0.014
14,CC(C)c1onc(-c2c(Cl)cccc2Cl)c1COc1ccc(/C=C/c2cccc(C(=O)O)c2)c(Cl)c1,1 ± 0.044
15,C=CCN1CCCC1CNC(=O)c1cc2nn[nH]c2cc1OC (stereo not given) [Alizapride HCl],1.16 ± 0.049
16,NC(=O)[C@@H](CCC(F)(F)F)N(Cc1ccc(-c2ncon2)cc1F)S(=O)(=O)c1ccc(Cl)cc1,1.19 ± 0.079
17,COc1ccc(CNCc2cccc3ccccc23)cc1,1.12 ± 0.17
18,Cc1[nH]c(/C=C2\C(=O)Nc3ccc(S(=O)(=O)Cc4c(Cl)cccc4Cl)cc32)c(C)c1C(=O)N1CCC[C@@H]1CN1CCCC1,1.09 ± 0.013
19,N#CC(=C(/N)Sc1ccccc1N)/C(C#N)=C(\N)Sc1ccccc1N,1.01 ± 0.013
20,Cc1c(Cn2c(C)nc3c(C(=O)O)cc(N4CCOCC4)cc32)cccc1C(F)(F)F,0.825 ± 0.067
21,CCCCCCCCCCCCCCCC[N+](C)(C)C [Cetrimonium Bromide (CTAB)],1.02 ± 0.11
22,O=C(NCc1ccc(Oc2ccccc2)cc1)c1nc(-c2cc(Br)c(O)c(Br)c2)no1,1.04 ± 0.089
23,CCCc1nc(C(C)(C)O)c(C(=O)OCc2oc(=O)oc2C)n1Cc1ccc(-c2ccccc2-c2nnn[nH]2)cc1 [Olmesartan Medoxomil],1.06 ± 0.1
24,Cn1c(=O)c2c(ncn2CC(O)CO)n(C)c1=O (stereo not given) [Dyphylline],1.055 ± 0.0018
25,Nc1nccs1 [Aminothiazole],1.12 ± 0.036

row,SMILES,relative cell viability
1,NC(=O)c1cccnc1 [Nicotinamide (Vitamin B3)],0.992 ± 0.04
2,NCc1c[nH]c(=S)n1[C@H]1CCc2c(F)cc(F)cc2C1 [Nepicastat (SYN-117) HCl],1.21 ± 0.12
3,COc1ccc(-c2cc3c(C)nc(N)nc3n([C@H]3CC[C@H](OCCO)CC3)c2=O)cn1,0.648 ± 0.035
4,Cn1c(=O)c(F)c(Nc2ccc(I)cc2F)c2c(=O)n(C[C@@H](O)CO)cnc21,0.791 ± 0.065
5,COc1ccc(/C=C/C(=O)C2(C(=O)/C=C/c3ccc(OC)c(OC)c3)CCCCC2)cc1OC,0.238 ± 0.01
6,CC1=NN(c2ccc(C(=O)O)cc2)C(=O)C1=Cc1ccc(-c2cc(C)c(C)cc2[N+](=O)[O-])o1,0.872 ± 0.091
7,CCC(C)(C)c1ccc(CC(C)CN2C[C@@H](C)O[C@@H](C)C2)cc1 (stereo not given in full) [Amorolfine HCl],1.04 ± 0.046
8,CCOC(=O)c1ccc(C#Cc2ccc3c(c2)C(C)(C)CCS3)nc1 [Tazarotene],1.09 ± 0.049
9,"CC(C)(C)C#Cc1cc(N(C(=O)[C@H]2CC[C@H](C)CC2)[C@H]2CC[C@H](O)CC2)c(C(=O)O)s1 [VX-222 (VCH-222, Lomibuvir)]",0.955 ± 0.024
10,CC(C)N(CCC(=O)c1ccc2ccccc2c1)Cc1ccccc1,0.1814 ± 0.0002
11,CCCNS(=O)(=O)Nc1ncnc(OCCOc2ncc(Br)cn2)c1-c1ccc(Br)cc1 [Macitentan],1.24 ± 0.077
12,Nc1ccc(S(N)(=O)=O)cc1 [Sulfanilamide],1.04 ± 0.017
13,CCN1CCC[C@H]1CNC(=O)c1cc(S(N)(=O)=O)ccc1OC [Levosulpiride],1.06 ± 0.039
14,CCOc1nc2cccc(C(=O)OC(C)OC(=O)OC3CCCCC3)c2n1Cc1ccc(-c2ccccc2-c2nn[nH]n2)cc1 (stereo not given) [Candesartan Cilexetil],1.05 ± 0.078
15,COc1ccccc1OCCNCC(O)COc1cccc2[nH]c3ccccc3c12 (stereo not given) [Carvedilol],0.735 ± 0.083
16,CC(C)c1nc(CN(C)C(=O)N[C@H](C(=O)N[C@@H](Cc2ccccc2)C[C@H](O)[C@H](Cc2ccccc2)NC(=O)OCc2cncs2)C(C)C)cs1 [Ritonavir],1.02 ± 0.012
17,COc1c(O)cc2c(c1O)[C@@H]1O[C@H](CO)[C@@H](O)[C@H](O)[C@H]1OC2=O [Bergenin],1.18 ± 0.021
18,CC(C)[C@H]1CC[C@H](C(=O)N[C@H](Cc2ccccc2)C(=O)O)CC1 [Nateglinide],1.03 ± 0.013
19,Nc1cccc(-c2cc3c(Oc4cccc(O)c4)ncnc3[nH]2)c1,0.976 ± 0.062
20,COc1ccc(C(C)=O)c(O)c1 [Paeonol],1.13 ± 0.088
21,COc1ccc(-n2nc(C(N)=O)c3c2C(=O)N(c2ccc(N4CCCCC4=O)cc2)CC3)cc1 [Apixaban],0.954 ± 0.031
22,C[C@@H](O)[C@H]1C(=O)N2C(C(=O)OCOC(=O)C(C)(C)C)=C(SC3CN(C4=NCCS4)C3)[C@H](C)[C@H]12 [Tebipenem Pivoxil],1 ± 0.12
23,CN[C@@H](C)C(=O)N[C@H](C(=O)N1CCC[C@H]1C(=O)N[C@H](C(=O)NCCCCCCNC(=O)[C@@H](NC(=O)[C@@H]1CCCN1C(=O)[C@@H](NC(=O)[C@H](C)NC)C1CCCCC1)C(c1ccccc1)c1ccccc1)C(c1ccccc1)c1ccccc1)C1CCCCC1,0.437 ± 0.011
24,CCCCOc1ccc(OCCCN2CCOCC2)cc1 [Pramoxine HCl],1.18 ± 0.12
25,CC1CCc2cc(F)cc3c(=O)c(C(=O)O)cn1c23 (stereo not given) [Flumequine],0.887 ± 0.23
